# The supplement of paper PMC8728848
# This is one part of the list.
# B1: MpAFP NterminalRI GFP (Marinomonas primoryensis) (protein)
# chain: MSDNQFPFATLGNAIGFITKLDGSVTVQSIDGQERVLKLGDPIFFGETVLTGGSGSVTIAFVDGTDVVIGGDSIVEMTDEIYNTGDNEDLVADSSSEIDALQNAILAGDDPTLIQDAPAAGNTLADQQRVDVSIERNDNSAQAGFGVDTQSSLPTYGYDTDNGNGGQATEREYSAPSLSRTLNQSPLLEHHHHHH
# Key:
# Assay in all cases: glycan array binding signal (z-score within array); higher = stronger binding
# Details in all cases: glycan notation: IUPAC condensed, linker removed
# [1] = target: Gal(b1-3)GlcNAc(b1-6)GalNAc
# Procedure, shortened: (§1)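 Glycan array binding is given as a within-array Z-score, which can be read as non-binding when negative. The arrays, 3228 of them, came from the Consortium for Functional Glycomics database and were retained only where the protein sequence was available. Z-scores were averaged across arrays of the same protein sequence at different concentrations or buffers and across linkers.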
# [2] = target: Gal(b1-3)GlcNAc(b1-6)[Gal(b1-3)]GalNAc
# Procedure, shortened: as §1
# Gal(b1-3)GlcNAc6S = target: Gal(b1-3)GlcNAc6S
# Procedure, shortened: as §1
# [3] = target: Gal(b1-3)[Fuc(a1-4)]GlcNAc
# Procedure, shortened: as §1
# [4] = target: Gal(b1-3)[Fuc(a1-4)]GlcNAc(b1-2)Man
# Procedure, shortened: as §1
# [5] = target: Gal(b1-3)[Fuc(a1-4)]GlcNAc(b1-2)Man(a1-3)[Gal(b1-3)[Fuc(a1-4)]GlcNAc(b1-2)Man(a1-6)]Man(b1-4)GlcNAc(b1-4)[Fuc(a1-6)]GlcNAc
# Procedure, shortened: as §1
# [6] = target: Gal(b1-3)[Fuc(a1-4)]GlcNAc(b1-3)Gal(b1-3)[Fuc(a1-4)]GlcNAc
# Procedure, shortened: as §1
# [7] = target: Gal(b1-3)[Fuc(a1-4)]GlcNAc(b1-3)Gal(b1-4)[Fuc(a1-3)]GlcNAc
# Procedure, shortened: as §1
# [8] = target: Gal(b1-3)[Fuc(a1-4)]GlcNAc(b1-6)GalNAc
# Procedure, shortened: as §1
# [9] = target: Gal(b1-3)[GlcNAc(b1-6)]GalNAc
# Procedure, shortened: as §1
# [10] = target: Gal(b1-3)[Neu5Ac(a2-6)]GalNAc
# Procedure, shortened: as §1
# [11] = target: Gal(b1-3)[Neu5Ac(a2-6)]GlcNAc(b1-4)Gal(b1-4)Glc
# Procedure, shortened: as §1
# [12] = target: Gal(b1-3)[Neu5Ac(b2-6)]GalNAc
# Procedure, shortened: as §1
# Gal(b1-4)Gal = target: Gal(b1-4)Gal
# Procedure, shortened: as §1
# [13] = target: Gal(b1-4)GalNAc(a1-3)[Fuc(a1-2)]Gal(b1-4)GlcNAc
# Procedure, shortened: as §1
# [14] = target: Gal(b1-4)GalNAc(b1-3)[Fuc(a1-2)]Gal(b1-4)GlcNAc
# Procedure, shortened: as §1
# Gal(b1-4)Glc = target: Gal(b1-4)Glc
# Procedure, shortened: as §1
# Gal(b1-4)Glc6S = target: Gal(b1-4)Glc6S
# Procedure, shortened: as §1
# Gal(b1-4)GlcNAc = target: Gal(b1-4)GlcNAc
# Procedure, shortened: as §1
# [15] = target: Gal(b1-4)GlcNAc(a1-6)Gal(b1-4)GlcNAc
# Procedure, shortened: as §1
# Gal(b1-4)GlcNAc(b1-2)Man = target: Gal(b1-4)GlcNAc(b1-2)Man
# Procedure, shortened: as §1
# [16] = target: Gal(b1-4)GlcNAc(b1-2)Man(a1-3)Man(b1-4)GlcNAc(b1-4)GlcNAc
# Procedure, shortened: as §1
# [17] = target: Gal(b1-4)GlcNAc(b1-2)Man(a1-3)[Gal(b1-4)GlcNAc(b1-2)Man(a1-6)]Man(b1-4)GlcNAc(b1-4)GlcNAc
# Procedure, shortened: as §1
# [18] = target: Gal(b1-4)GlcNAc(b1-2)Man(a1-3)[Gal(b1-4)GlcNAc(b1-2)Man(a1-6)]Man(b1-4)GlcNAc(b1-4)[Fuc(a1-6)]GlcNAc
# Procedure, shortened: as §1
# [19] = target: Gal(b1-4)GlcNAc(b1-2)Man(a1-3)[Gal(b1-4)GlcNAc(b1-2)Man(a1-6)][Gal(b1-4)GlcNAc(b1-4)]Man(b1-4)GlcNAc(b1-4)[Fuc(a1-6)]GlcNAc
# Procedure, shortened: as §1
# [20] = target: Gal(b1-4)GlcNAc(b1-2)Man(a1-3)[Gal(b1-4)GlcNAc(b1-2)Man(a1-6)][GlcNAc(b1-4)]Man(b1-4)GlcNAc(b1-4)[Fuc(a1-6)]GlcNAc
# Procedure, shortened: as §1
# [21] = target: Gal(b1-4)GlcNAc(b1-2)Man(a1-3)[GlcNAc(b1-2)Man(a1-6)]Man(b1-4)GlcNAc(b1-4)GlcNAc
# Procedure, shortened: as §1
# [22] = target: Gal(b1-4)GlcNAc(b1-2)Man(a1-3)[GlcNAc(b1-4)][Gal(b1-4)GlcNAc(b1-2)Man(a1-6)]Man(b1-4)GlcNAc(b1-4)GlcNAc
# Procedure, shortened: as §1
# [23] = target: Gal(b1-4)GlcNAc(b1-2)Man(a1-3)[Man(a1-6)]Man(b1-4)GlcNAc(b1-4)GlcNAc
# Procedure, shortened: as §1
# [24] = target: Gal(b1-4)GlcNAc(b1-2)Man(a1-6)Man(b1-4)GlcNAc(b1-4)GlcNAc
# Procedure, shortened: as §1
# [25] = target: Gal(b1-4)GlcNAc(b1-2)Man(a1-6)[GlcNAc(b1-2)Man(a1-3)]Man(b1-4)GlcNAc(b1-4)GlcNAc
# Procedure, shortened: as §1
# [26] = target: Gal(b1-4)GlcNAc(b1-2)Man(a1-6)[Man(a1-3)]Man(b1-4)GlcNAc(b1-4)GlcNAc
# Procedure, shortened: as §1
# [27] = target: Gal(b1-4)GlcNAc(b1-2)[Gal(b1-4)GlcNAc(b1-4)]Man(a1-3)[Gal(b1-4)GlcNAc(b1-2)Man(a1-6)]Man(b1-4)GlcNAc(b1-4)GlcNAc
# Procedure, shortened: as §1
# [28] = target: Gal(b1-4)GlcNAc(b1-2)[Gal(b1-4)GlcNAc(b1-4)]Man(a1-3)[Gal(b1-4)GlcNAc(b1-2)[Gal(b1-4)GlcNAc(b1-6)]Man(a1-6)]Man(b1-4)GlcNAc(b1-4)GlcNAc
# Procedure, shortened: as §1
# [29] = target: Gal(b1-4)GlcNAc(b1-2)[Gal(b1-4)GlcNAc(b1-4)]Man(a1-3)[GlcNAc(b1-4)][Gal(b1-4)GlcNAc(b1-2)Man(a1-6)]Man(b1-4)GlcNAc(b1-4)GlcNAc
# Procedure, shortened: as §1
# [30] = target: Gal(b1-4)GlcNAc(b1-2)[Gal(b1-4)GlcNAc(b1-4)]Man(a1-3)[GlcNAc(b1-4)][Gal(b1-4)GlcNAc(b1-2)[Gal(b1-4)GlcNAc(b1-6)]Man(a1-6)]Man(b1-4)GlcNAc(b1-4)GlcNAc
# Procedure, shortened: as §1
# [31] = target: Gal(b1-4)GlcNAc(b1-2)[Gal(b1-4)GlcNAc(b1-6)]Man(a1-6)[Gal(b1-4)GlcNAc(b1-2)Man(a1-3)]Man(b1-4)GlcNAc(b1-4)GlcNAc
# Procedure, shortened: as §1
# [32] = target: Gal(b1-4)GlcNAc(b1-2)[Gal(b1-4)GlcNAc(b1-6)]Man(a1-6)[Gal(b1-4)GlcNAc(b1-2)Man(a1-3)]Man(b1-4)GlcNAc(b1-4)[Fuc(a1-6)]GlcNAc
# Procedure, shortened: as §1
# [33] = target: Gal(b1-4)GlcNAc(b1-2)[Gal(b1-4)GlcNAc(b1-6)]Man(a1-6)[GlcNAc(b1-4)][Gal(b1-4)GlcNAc(b1-2)Man(a1-3)]Man(b1-4)GlcNAc(b1-4)GlcNAc
# Procedure, shortened: as §1
# [34] = target: Gal(b1-4)GlcNAc(b1-2)[Gal(b1-4)GlcNAc(b1-6)]Man(a1-6)[GlcNAc(b1-4)][Gal(b1-4)GlcNAc(b1-2)[Gal(b1-4)GlcNAc(b1-4)]Man(a1-3)]Man(b1-4)GlcNAc(b1-4)[Fuc(a1-6)]GlcNAc
# Procedure, shortened: as §1
# [35] = target: Gal(b1-4)GlcNAc(b1-3)Gal(b1-3)GalNAc
# Procedure, shortened: as §1
# [36] = target: Gal(b1-4)GlcNAc(b1-3)Gal(b1-3)GlcNAc
# Procedure, shortened: as §1
# [37] = target: Gal(b1-4)GlcNAc(b1-3)Gal(b1-4)Glc
# Procedure, shortened: as §1
# [38] = target: Gal(b1-4)GlcNAc(b1-3)Gal(b1-4)GlcNAc
# Procedure, shortened: as §1
# [39] = target: Gal(b1-4)GlcNAc(b1-3)Gal(b1-4)GlcNAc(b1-2)Man(a1-3)[Gal(b1-4)GlcNAc(b1-3)Gal(b1-4)GlcNAc(b1-2)Man(a1-6)]Man(b1-4)GlcNAc(b1-4)GlcNAc
# Procedure, shortened: as §1
binder,measurement,setting,value
B1,glycan array binding signal (z-score),[1],-0.346
same,glycan array binding signal (z-score),[2],-0.392
same,glycan array binding signal (z-score),Gal(b1-3)GlcNAc6S,-0.445
same,glycan array binding signal (z-score),[3],-0.329
same,glycan array binding signal (z-score),[4],0.17
same,glycan array binding signal (z-score),[5],1.85
same,glycan array binding signal (z-score),[6],-0.419
same,glycan array binding signal (z-score),[7],-0.359
same,glycan array binding signal (z-score),[8],-0.079
same,glycan array binding signal (z-score),[9],-0.473
same,glycan array binding signal (z-score),[10],-0.003
same,glycan array binding signal (z-score),[11],-0.565
same,glycan array binding signal (z-score),[12],-0.76
same,glycan array binding signal (z-score),Gal(b1-4)Gal,-0.299
same,glycan array binding signal (z-score),[13],-0.492
same,glycan array binding signal (z-score),[14],-0.315
same,glycan array binding signal (z-score),Gal(b1-4)Glc,-0.294
same,glycan array binding signal (z-score),Gal(b1-4)Glc6S,-0.333
same,glycan array binding signal (z-score),Gal(b1-4)GlcNAc,0.037
same,glycan array binding signal (z-score),[15],-0.681
same,glycan array binding signal (z-score),Gal(b1-4)GlcNAc(b1-2)Man,0.934
same,glycan array binding signal (z-score),[16],-0.283
same,glycan array binding signal (z-score),[17],-0.39
same,glycan array binding signal (z-score),[18],-0.334
same,glycan array binding signal (z-score),[19],-0.287
same,glycan array binding signal (z-score),[20],-0.47
same,glycan array binding signal (z-score),[21],-0.455
same,glycan array binding signal (z-score),[22],-0.258
same,glycan array binding signal (z-score),[23],0.863
same,glycan array binding signal (z-score),[24],-0.469
same,glycan array binding signal (z-score),[25],0.027
same,glycan array binding signal (z-score),[26],-0.506
same,glycan array binding signal (z-score),[27],-0.11
same,glycan array binding signal (z-score),[28],-0.309
same,glycan array binding signal (z-score),[29],-0.371
same,glycan array binding signal (z-score),[30],-0.342
same,glycan array binding signal (z-score),[31],-0.449
same,glycan array binding signal (z-score),[32],-0.054
same,glycan array binding signal (z-score),[33],-0.293
same,glycan array binding signal (z-score),[34],-0.156
same,glycan array binding signal (z-score),[35],-0.412
same,glycan array binding signal (z-score),[36],1.27
same,glycan array binding signal (z-score),[37],-0.31
same,glycan array binding signal (z-score),[38],-0.541
same,glycan array binding signal (z-score),[39],1.24
